The results in this text go back to the supplement of paper PMC11417369.

± gives the standard deviation of the averaged measurements. Some of the results follow.

This test relates to PfAP2-I AP2 domain 3 (GST-tagged). Nature of the test: gcPBM binding intensity (ln(normalized median fluorescence intensity)); higher = stronger DNA binding. A digest of the protocol: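 An Agilent 4 × 180k array carrying primer-extended double-stranded 36-bp intergenic genomic probes and negative controls received GST-tagged P. falciparum DNA-binding domains expressed in E. coli, about 25 μg on average, for 1 h. The binding buffer contained 1× PBS, 1% milk, 0.2 mg/ml BSA, 0.5% salmon testes DNA and 0.03% Triton X-100. Binding intensity is the top Masliner-normalised natural-log median intensity across replicate spots of either probe orientation, read after Alexa488 anti-GST antibody staining and a 488 nm scan.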
Consider “TATTTATACATACGTACACACAAATATTAAAATATA [CACACA_site7004]”, for which the “gcPBM binding intensity (ln)” value amounted to 8.22 ± 0.099.
Then “ATATATATATATAGGAGTACATGAAATACTTAAAAA [XGTACX_site8851]”, with 9.2 ± 0.36.
Then “AAAAAAGAAATAATCAAATAAATAAAAAAGATGAAT [XGTACX_negctrl_site607]”, with 7.86 ± 0.39.
Then “GTGTGAAGATATAAATGCATTTTTTTATACATTTTC [CACACA_negctrl_site117]”, with 7.77 ± 0.55; and “TGTAAGTATTCTTGAGGTACACATATAAATATAGTA [XGTACX_site3207]”, with 7.71 ± 0.33.
“AATATTATATAATAAAGTACATATATATTCATATTT [XGTACX_site7204]”: the “gcPBM binding intensity (ln)” value turned out to be 7.64 ± 0.45.
Next, “TGTGTGGATATATGTATGCACTACCCTTTGGGTCAT [GTGCAC_site9506]”: 9.55 ± 1.
In the case of “AAATATTAAATGGAAAACAAATATATATATCTTAAT [XGTACX_negctrl_site383]”, the “gcPBM binding intensity (ln)” value worked out at 7.47 ± 0.61.
Next, “ATATATTGAACCTATGCATGTAAAATATATGTAATA [TGCATGCA_site644]”: 7.55 ± 0.61; “TTTTATGTTTTTTTTATAAATATTAAAATTCTATAT [CACACA_negctrl_site1477]”: 7.71 ± 0.23; “ATATATATATATAATTGTACATTTTTAACCTTAACA [XGTACX_site7910]”: 9.28 ± 0.51.
Then “AATGTTAAAAATGAAAGTACATGGAATTTATTATTT [XGTACX_site4095]”, with 7.78 ± 0.58.
Take “ATATTGTTATATGTTTGTACATATTTTTTATATTTT [XGTACX_site6834]”: the “gcPBM binding intensity (ln)” value was 7.7 ± 0.64.
As for “AAAAAAAAAAAATACACACACACATATAAATATGTA [CACACA_site6900]”, the “gcPBM binding intensity (ln)” value amounted to 7.6 ± 0.18.
Then “GTTTATATATGCTTATAATTTTCAATTGTTTTACAA [TGCATGCA_negctrl_site384]”, with 7.79 ± 0.57.
Then “TGATTCAATTTATGCACACTAAAAATTAATTATATT [CACACA_site271]”, with 9.65 ± 0.23.
Then “TTTTTTTTTTATACATGTACTTAAAAGTAGCACCTT [XGTACX_site1855]”, with 8.98 ± 0.099; and “GACATTAATTATTTGACACACGACTGGGTGGTGATT [CACACA_site306]”, with 7.61 ± 0.68; and “TTTGTAAAAGGTCATACACACATATTCAAAAGAAGT [CACACA_site2947]”, with 7.79 ± 0.76.
Regarding “ATTATATATACAACAAGTACAAAAGAAAAATATTAT [XGTACX_site2914]”, the “gcPBM binding intensity (ln)” value came out at 7.88 ± 0.62.
Next, “TATAAATACATCCTATACTTCTCTTTTACAGTTTTA [CACACA_negctrl_site1283]”: 7.71 ± 0.54.
Then “TTTTTATGTTATCAAATAAATATAAATATAATTCAT [CACACA_negctrl_site1522]”, with 7.3 ± 0.35; and “TAAAGAGTTACCATTTGTACTTACGCACACATAAAA [XGTACX_site3145]”, with 8.37 ± 0.35; and “TATATTTGAAATATATGTACTTATAATACAGTTTAA [XGTACX_site8039]”, with 7.6 ± 0.38.
Regarding “TTCCTTCAAAATTTAAGTAATAAGATAAAAATATAA [CACACA_negctrl_site1696]”, the “gcPBM binding intensity (ln)” value amounted to 7.54 ± 0.61.
“CACAGATAAATTAACACACACACACGGATATTTATA [CACACA_site7788]”: the “gcPBM binding intensity (ln)” value was 8.03 ± 0.26.
Then “ATGTATACAAATATATGTACGTATGTTCTCTTCTTT [XGTACX_site7865]”, with 7.81 ± 0.59.
Then “GGTAATAAACAATGAAGTACGTAAAGGTAAAATATT [XGTACX_site2647]”, with 8.46 ± 0.77; and “TTATTAGGTATATATGCACACAATACCCAAAACAAC [CACACA_site4221]”, with 9.595 ± 0.021.
Take “TATTTTCAAAAATATACACACACATAAATATATGTA [CACACA_site8160]”: the “gcPBM binding intensity (ln)” value was found to be 7.54 ± 0.38.
On to “ATTTAATTTTCATGATGTACTATAGTTTAATGCACA [XGTACX_site1624]”, for which the “gcPBM binding intensity (ln)” value amounted to 11.6 ± 1.1.
Turning to “TAATAATCAAACTATACACACATAAATAGATATATA [CACACA_site6220]”, the “gcPBM binding intensity (ln)” value was 7.53 ± 0.52.
Then “TGTAAATATAAATGTAATAAATATGTAAAAATAAAT [XGTACX_negctrl_site171]”, with 7.74 ± 0.45; and “TTATATGTATTTCTTTGTACACATTTTTATATATAT [XGTACX_site1462]”, with 8.21 ± 0.3.
Next, “TATCATTTTTTTAAAACACACATAATAATATAAATA [CACACA_site2845]”: 7.82 ± 0.31; “TAAATTTTATAAATCTGTACATATGAGCAAGAACAT [XGTACX_site7400]”: 8.43 ± 0.3; “ATTATGCACCAACACACACACACACCCCTAAAAAAT [CACACA_site2568]”: 11.4 ± 0.79.
As to “CACTTCAAAAAAATATGTACACATATATATATATAT [XGTACX_site3075]”, the “gcPBM binding intensity (ln)” value is 9.47 ± 0.5.
Next, “TTATTTATTTTTTCATGTACTTAAATATATTAATGT [XGTACX_site5804]”: 7.92 ± 0.54; “ATCTATATTTTTATAACACACAATGATGTACATTAC [CACACA_site6633]”: 8.11 ± 0.7; “TAGAATAATCTATAAACACACAAACCCAACAAAAGA [CACACA_site6132]”: 8.39 ± 0.38.
Consider “TGAAAATATTTTATATGTACATATATTATCAATACA [XGTACX_site92]”, for which the “gcPBM binding intensity (ln)” value came to 7.79 ± 0.28.
Next, “AATATATAATTAATTGCACACCTTGTCACGCCAAAA [CACACA_site1174]”: 9.58 ± 0.11; “TATTAATACAGACACACACACACACTAATTAAAATA [CACACA_site7967]”: 8.1 ± 0.29.
